Test results published in publication PMC10762078, “Role of UPF1-LIN28A interaction during early differentiation of pluripotent stem cells” (Nature Communications, 2024).
Results are given in words; binding and its absence hold for the method and conditions named. For part of these data: Binding seen in cells or lysates may run through a third protein. Some results given as binding are weak or reduced against the parent protein; the word gives no strength. For part of these data: Where a sequence is shown, tags or fusion partners need not be part of it.

Key:
[1] = biological target: T1, GST-LIN28A (full-length, 1–209) (human (cDNA of PA-1 cells)) (UniProt Q9H9Z2); experiment: pull-down; GST pull-down (Glutathione Sepharose 4B) from lysates of co-transfected 293T cells, with or without nuclease (benzonase or DNase I/RNase A/MNase mixture); washes in NET2 (150 mM NaCl, 0.5% NP-40), 4 °C; western blot
T1 sequence: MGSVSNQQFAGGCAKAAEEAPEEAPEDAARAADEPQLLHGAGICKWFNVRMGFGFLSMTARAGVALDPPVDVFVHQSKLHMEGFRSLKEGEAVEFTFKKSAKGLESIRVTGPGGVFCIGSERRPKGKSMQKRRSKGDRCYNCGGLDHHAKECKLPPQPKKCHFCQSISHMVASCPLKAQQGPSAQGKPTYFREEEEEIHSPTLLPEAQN

[2] = biological target: T2, GST-LIN28A(78–163) (human (cDNA of PA-1 cells)) (UniProt Q9H9Z2); experiment: as above
T2 sequence: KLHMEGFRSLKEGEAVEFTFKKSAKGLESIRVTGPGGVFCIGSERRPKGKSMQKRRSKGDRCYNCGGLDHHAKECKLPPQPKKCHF

[3] = biological target: T3, GST-LIN28A(1–77) (human (cDNA of PA-1 cells)) (UniProt Q9H9Z2); experiment: as above
T3 sequence: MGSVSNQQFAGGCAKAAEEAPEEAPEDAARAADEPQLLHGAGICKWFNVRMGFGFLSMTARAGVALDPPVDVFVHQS

[4] = biological target: T4, GST-LIN28A(1–124) (human (cDNA of PA-1 cells)) (UniProt Q9H9Z2); experiment: as above
T4 sequence: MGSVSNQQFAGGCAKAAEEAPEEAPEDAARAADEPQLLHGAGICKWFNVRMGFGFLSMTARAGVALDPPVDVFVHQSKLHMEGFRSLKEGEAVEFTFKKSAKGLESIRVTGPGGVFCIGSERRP

His-LIN28A [5] = biological target: T5, His-LIN28A (UniProt Q9H9Z2 1-209); experiment: SPR; kinetic evaluation: His-LIN28A on Ni-NTA chip, P8 at 30, 15, 7.5, 3.8, 1.9 and 0.95 μM in 1× HBS-T; both purified
T5 chain: T1 sequence

His-LIN28A [6] = biological target: T5, His-LIN28A; experiment: SPR; His-LIN28A immobilised on Ni-NTA gold chip (about 1000 RU), peptides as analytes at 15 μM in 1× HBS-T, 3 min association, 6 min dissociation; iMSPR-ProX; both purified
[7] = biological target: T6, LIN28A (endogenous) (human (endogenous in hPSCs, PA-1)) (UniProt Q9H9Z2); experiment: proximity ligation; PLA of UPF1 and LIN28A in LIN28A-overexpressing HeLa cells and hPSCs treated with synthetic CPP-conjugated peptides, read as displacement by CPP-P8; only the binder purified
T6 sequence: T1 sequence

[8] = biological target: T7, LIN28A overexpressed in HeLa cells (human (cDNA of PA-1 cells)) (UniProt Q9H9Z2); experiment: as above
T7 sequence: T1 sequence

[9] = biological target: T1, GST-LIN28A (full-length, 1–209) (human (cDNA of PA-1 cells)); experiment: pull-down; same experiment as a9, read as displacement by the synthetic peptide CPP-P8 added to the cells (2 μM, 12 h); only the binder purified
[10] = biological target: T8, GST-MYC-UPF1 (full-length, 1–1118) (UniProt Q92900); experiment: pull-down; in vitro GST pull-down: GST-MYC-UPF1 purified from 293T on glutathione beads (nuclease mixture), incubated with His-LIN28A in NET2 buffer 2 h at 4 °C; Coomassie staining and western blot; both purified
T8 sequence: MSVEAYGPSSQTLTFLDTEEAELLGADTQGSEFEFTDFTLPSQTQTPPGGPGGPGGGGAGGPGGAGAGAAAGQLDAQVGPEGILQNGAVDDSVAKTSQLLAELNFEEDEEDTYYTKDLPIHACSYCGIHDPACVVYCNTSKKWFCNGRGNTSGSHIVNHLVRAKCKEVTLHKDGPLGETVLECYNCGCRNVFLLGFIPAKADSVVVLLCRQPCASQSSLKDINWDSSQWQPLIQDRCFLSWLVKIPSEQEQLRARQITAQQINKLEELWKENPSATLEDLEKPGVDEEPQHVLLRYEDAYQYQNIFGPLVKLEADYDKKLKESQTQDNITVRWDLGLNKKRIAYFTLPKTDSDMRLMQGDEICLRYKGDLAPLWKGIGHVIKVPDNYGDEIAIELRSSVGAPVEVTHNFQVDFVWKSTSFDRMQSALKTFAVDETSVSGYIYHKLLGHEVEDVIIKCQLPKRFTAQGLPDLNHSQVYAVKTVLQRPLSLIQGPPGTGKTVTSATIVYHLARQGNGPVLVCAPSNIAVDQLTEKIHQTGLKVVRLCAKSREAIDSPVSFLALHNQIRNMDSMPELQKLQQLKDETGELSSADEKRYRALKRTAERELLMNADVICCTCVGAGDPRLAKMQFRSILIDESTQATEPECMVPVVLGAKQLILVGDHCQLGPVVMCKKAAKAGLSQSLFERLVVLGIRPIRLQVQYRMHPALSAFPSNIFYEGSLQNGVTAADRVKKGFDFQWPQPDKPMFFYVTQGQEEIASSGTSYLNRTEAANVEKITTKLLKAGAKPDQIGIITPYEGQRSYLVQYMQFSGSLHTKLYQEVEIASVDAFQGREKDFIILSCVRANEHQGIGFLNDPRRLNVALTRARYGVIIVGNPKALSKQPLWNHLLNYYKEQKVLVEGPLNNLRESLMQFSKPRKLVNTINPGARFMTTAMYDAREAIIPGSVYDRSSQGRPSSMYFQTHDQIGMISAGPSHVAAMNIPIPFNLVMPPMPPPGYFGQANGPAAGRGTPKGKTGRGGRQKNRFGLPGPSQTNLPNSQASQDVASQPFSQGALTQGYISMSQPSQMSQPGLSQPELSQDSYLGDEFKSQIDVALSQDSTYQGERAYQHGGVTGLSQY

B1: MYC-UPF1 (protein, UniProt Q92900-2 1-1118)
chain: T8 sequence
In the case of B1, the binding [1] is reported as “binds”, the binding [2] is reported as “binds” and the binding [3] is reported as “binds”. For the same binder, the binding [4] was “binds”.

B2: P8 (peptide)
peptide: SSADEKRYRALKRTAERELLMNA
For B2, the binding (His-LIN28A [5]) was “binds” and the binding (His-LIN28A [6]) was “binds”.

B3: P4 (peptide)
peptide: STSFDRMQSALKTFAVD
With B3 the binding (His-LIN28A [6]) was “binds weakly”.

B4: MYC-UPF1(419–700) (domain or fragment, UniProt Q92900-2 419-700)
chain: SFDRMQSALKTFAVDETSVSGYIYHKLLGHEVEDVIIKCQLPKRFTAQGLPDLNHSQVYAVKTVLQRPLSLIQGPPGTGKTVTSATIVYHLARQGNGPVLVCAPSNIAVDQLTEKIHQTGLKVVRLCAKSREAIDSPVSFLALHNQIRNMDSMPELQKLQQLKDETGELSSADEKRYRALKRTAERELLMNADVICCTCVGAGDPRLAKMQFRSILIDESTQATEPECMVPVVLGAKQLILVGDHCQLGPVVMCKKAAKAGLSQSLFERLVVLGIRPIRLQV
B4 was tested, and the binding [1] was “binds”.

B5: CPP-P8 (peptide)
peptide: KKKWCRKKKSSADEKRYRALKRTAERELLMNA
For B5, the binding [7] was “binds”, the binding [8] was “binds” and the binding [9] was “binds”.

B6: His-LIN28A (protein, UniProt Q9H9Z2 1-209)
chain: T1 sequence
In the case of B6, the binding [10] is reported as “binds”.
